Test results taken from article PMC4336329 (PLoS ONE, 2015).
About 14,000 (4.5%) of roughly 310,000 compounds showed an effect of 50% or more. The effect is printed as a negative number. The list shows a part of the results.

Molecular target: human ether-à-go-go-related gene (hERG) potassium channel (human, UniProt Q12809)
Experiment: primary screen, population patch clamp on CHO cells stably expressing hERG
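Note: peak tail current of the secondary pulse compared with the same well before compound.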

Chain of human ether-à-go-go-related gene (hERG) potassium channel (Q12809 whole entry, looked up): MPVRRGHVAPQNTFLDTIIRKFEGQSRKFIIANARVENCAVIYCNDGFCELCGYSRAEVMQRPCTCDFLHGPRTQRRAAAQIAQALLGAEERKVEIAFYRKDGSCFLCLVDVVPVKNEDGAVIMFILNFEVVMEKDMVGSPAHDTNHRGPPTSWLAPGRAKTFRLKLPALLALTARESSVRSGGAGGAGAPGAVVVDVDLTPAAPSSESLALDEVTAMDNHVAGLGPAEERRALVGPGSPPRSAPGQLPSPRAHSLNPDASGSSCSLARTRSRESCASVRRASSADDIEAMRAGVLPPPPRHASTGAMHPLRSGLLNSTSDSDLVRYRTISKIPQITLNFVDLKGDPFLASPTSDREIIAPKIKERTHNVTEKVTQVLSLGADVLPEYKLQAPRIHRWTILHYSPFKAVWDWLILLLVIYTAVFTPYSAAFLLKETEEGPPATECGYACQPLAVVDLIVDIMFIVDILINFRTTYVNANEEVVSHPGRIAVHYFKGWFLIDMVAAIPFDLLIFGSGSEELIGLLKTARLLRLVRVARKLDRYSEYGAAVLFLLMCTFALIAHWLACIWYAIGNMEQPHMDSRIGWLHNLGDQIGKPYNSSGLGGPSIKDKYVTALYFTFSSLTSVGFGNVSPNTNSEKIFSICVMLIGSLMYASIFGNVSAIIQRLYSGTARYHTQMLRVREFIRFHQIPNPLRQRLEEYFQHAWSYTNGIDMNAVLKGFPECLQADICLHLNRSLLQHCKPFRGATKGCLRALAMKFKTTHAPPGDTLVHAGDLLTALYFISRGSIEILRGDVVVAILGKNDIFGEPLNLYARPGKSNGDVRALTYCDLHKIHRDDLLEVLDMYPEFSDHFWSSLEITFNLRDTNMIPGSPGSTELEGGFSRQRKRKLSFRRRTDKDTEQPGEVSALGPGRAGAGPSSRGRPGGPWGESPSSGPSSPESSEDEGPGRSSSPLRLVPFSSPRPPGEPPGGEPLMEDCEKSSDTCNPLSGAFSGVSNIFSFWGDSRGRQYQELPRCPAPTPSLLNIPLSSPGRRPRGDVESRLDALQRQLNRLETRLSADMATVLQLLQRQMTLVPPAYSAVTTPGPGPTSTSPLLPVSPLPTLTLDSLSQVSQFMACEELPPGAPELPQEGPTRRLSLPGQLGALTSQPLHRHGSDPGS

Compound	hERG current change (%, negative = inhibition) at 10uM [%]
O=C(Nc1ccc(Cl)cc1)OCc1cncs1	-12.2
CC(CCc1ccccc1)NC(=O)COc1cc(F)ccc1[N+](=O)[O-] (centres unmarked)	-18.7
CCN(C1CCCCC1)S(=O)(=O)c1ccc(-n2cnnn2)c(C)c1	-11.1
O=C(CSCc1cccc(Cl)c1)N/N=C/c1ccc(OCC(=O)N2CCCCC2)cc1	-11.7
O=C(Nc1ccc(F)cc1F)c1cc(=O)n(-c2ccccc2)c(=O)[nH]1	6.37
CCN(CC)S(=O)(=O)c1cccc(C(=O)N/N=C/c2c(C)nn(-c3ccccc3)c2Cl)c1	6.89
COCCN(CCOc1cc(C)cc(C)c1)Cc1ccc(Cl)cc1	18.1
COc1ccc(NC(=O)N(Cc2ccc3c(c2)OCO3)C2CC(=O)N(c3ccc(OC)cc3)C2=O)cc1 (centres unmarked)	-4.75
COc1ccc(C(=O)N/N=C/c2sc(N3CCOCC3)nc2-c2ccccc2)cc1OC	9.37
O=C(O)CCC(=O)Nc1ccc(OCC2CCCO2)cc1 (centres unmarked)	27.8
CCN(CC)S(=O)(=O)c1cccc(NC(=O)COC(=O)CCC(=O)c2cccs2)c1	3.85
CN1CCCN(S(=O)(=O)c2ccc(O)c(C(=O)O)c2)CC1.Cl	15.6
O=C(Nc1ccnn1C1CCN(C2CCC2)CC1)c1cccc(F)c1	-12.5
COc1cc2[nH]c(=O)c(C(=O)NCc3ccccc3Cl)c(O)c2cc1OC	8.08
CSc1ccc(CN(C)CCc2ccccn2)cc1.O=C(O)C(=O)O	-64.4
O=C(Cn1cnc2ccccc21)N1CCN(S(=O)(=O)c2ccccc2)CC1	13.7
O=C(c1ccccc1F)N(NC(=O)C(O)(c1ccccc1)c1ccccc1)c1ccccc1	5.11
Cc1cc(C)cc(Nc2cc(C)nc3nc(C)nn23)c1	-14.7
CCO[C@@H]1OC(C(=O)O)=C[C@H](c2ccc3c(c2)OCO3)[C@H]1CCCO	15.7
CC(=O)Nc1ccc(S(=O)(=O)NNC(=O)C2CCCCC2)cc1	-0.821
CCOCC(=O)Nc1ccc(C(=O)Nc2ccccc2Cl)cc1	-3.8
CCCC(C)NC(=O)c1ccccc1SC (centres unmarked)	-2.04

Compound	hERG current change (%, negative = inhibition) at 10uM [%]
CCN(CC)Cc1ccc(OC)c(Cl)c1.Cl	-32.2
CCN(CC)S(=O)(=O)c1ccc(Cl)c(NC(=O)c2ccccc2C)c1	10.7
O=C(COC(=O)c1cc2c(s1)CCC2)Nc1ccc(F)cc1	21
CCN(c1ccc(C)cc1C)S(=O)(=O)c1nnc(NC(=O)C(C)(C)C)s1	19.3
Cn1c(N)c(C(=O)/C=C/c2ccccc2)c(=O)[nH]c1=O	8.52
S=C(Nc1ccccc1)N1CCN(Cc2ccccc2)CC1	-4.13
Cc1ccc2c(c1)N(C(=O)CCC(=O)NCCCN1CC(C)CC(C)C1)CCO2 (centres unmarked)	-56.2
COc1ccc(CN2CCNCC2)c(OC)c1OC.Cl	17.8
Cn1c(CNS(=O)(=O)c2cccc(Cl)c2)cc(=O)n(C)c1=O	21.2
CC1=CCC(C(=O)O)C(C(=O)Nc2nc3ccc(S(C)(=O)=O)cc3s2)C1 (centres unmarked)	11.1
OCCCN=C1CCCc2c1[nH]c1ccc(Cl)cc21	-44.2
CCOc1ccc(NC(=O)Nc2cc(C)ccc2F)cc1	1.15
Cc1nn(CC(=O)N/N=C/c2ccc3c(c2)OCO3)c(C)c1Br	11
S=C(Nc1ccc(Cl)cc1)N(CCCN1CCOCC1)Cc1cccs1	-32.4
CCc1c(C(=O)NNC(=S)NCC(C)C)csc1C	-2.45
Cc1ccc(C2C(C(=O)c3cc4ccccc4o3)=C(O)C(=O)N2CCN2CCOCC2)cc1 (centres unmarked)	20.7
O=C(O)c1cc(N/N=C/c2ccc(-c3ccc(F)cc3)o2)ccc1Cl	1.06
CC(=O)c1c(C)nc(-c2ccc(OCC(=O)Nc3cccc(C)c3C)cc2)n1O	8.52
CCc1cc(=O)[nH]c(SCCc2ccccc2)n1	11.5
CSc1cccc(NC(=O)CN(c2cccc(C)c2)S(C)(=O)=O)c1	-23.5
COc1ccc(OC)c(CN2CCCC(C(=O)N3CCCCC3)C2)c1.O=C(O)C(=O)O (centres unmarked)	-32.1
O=C(NCCc1csc(-c2cccnc2)n1)c1c(F)cccc1F	11.5

Compound	hERG current change (%, negative = inhibition) at 10uM [%]
Cc1ccc(NS(=O)(=O)c2ccc(NC(=O)CN(c3cc([N+](=O)[O-])ccc3C)S(C)(=O)=O)cc2)c(C)c1	-13.5
O=C(CCc1nc(-c2ccccc2F)no1)NCCN1CCN(Cc2ccccc2)CC1	-43.2
O=C(COC(=O)C1CCC1)Nc1ccc(Oc2ccccc2)cc1	0.477
Nc1cccc(/C=C/c2ccncc2)c1	2.01
CC(C)OC(=O)/C(C#N)=C/c1c[nH]c2ccccc12	1.55
Cc1c(C#N)c(N=CN(C)C)c(C(=O)c2ccccc2)n1-c1ccc(Br)cc1	-28.3
COc1cc(-c2nc3cc(C)ccn3c2NC2CCCCC2)ccc1-c1ccc(C(C)=O)cc1.O=C(O)C(F)(F)F	0.767
CN1CCN(c2ccc(C=O)cc2)CC1	-12.9
Cc1cc(/C=N/n2cnnc2)c(O)c([N+](=O)[O-])c1	8.57
CC(=O)c1c(O)c2ccccc2n(Cc2ccccc2)c1=O	-6.56
O=C(O)c1cccc([N+](=O)[O-])c1C(=O)Nc1ccc2ccccc2c1	0.663
COCCC(=O)N1CCC(Oc2ccc(C(=O)NCCCC3CCCC3)cc2)CC1	-37.3
Cn1c(N)c(C(=O)COC(=O)CCCc2c[nH]c3ccccc23)c(=O)n(C)c1=O	-2.03
COc1ccc(-c2nn(-c3ccccc3)cc2C(=O)NC(=S)NNC(=O)c2ccncc2)cc1	8.38
O=C1CCC(=O)N1CNc1ccccn1	9.12
CC(C)NC(=O)c1ccccc1NC(=O)Cc1ccc([N+](=O)[O-])cc1	-33.8
CCOC(=O)c1ccc(-n2c(O)c(/C=N/NC(=O)C3COc4ccccc4O3)c3ccccc3c2=O)cc1 (centres unmarked)	-7.92
CC1(C)Cc2ccccc2-c2nc(NCCCO)[nH]c(=O)c21	-18.4
C=CCn1c(SCC(=O)NCC2CCCO2)nc2scc(-c3ccco3)c2c1=O (centres unmarked)	-42.4
O=C(/C=C/c1ccc2c(c1)OCO2)N1CCN(c2ccc(Cl)cc2)CC1	13.8
CC(C)c1ccc(C(O)Cc2nc3ccccc3n2C)cc1 (centres unmarked)	5.77
O=[N+]([O-])c1ccc(CN2CCN(c3ccc([N+](=O)[O-])cc3)CC2)cc1	-74.1

Compound	hERG current change (%, negative = inhibition) at 10uM [%]
Cc1ccccc1NC(=O)C(C)Sc1nnc(-c2ccncc2)n1CC1CCCO1 (centres unmarked)	3.98
Cc1cccc(CNC(=O)c2ccc3nc(Cc4ccccc4F)oc3c2)n1	-2.49
O=C1CN(C(=O)CSc2nnc(-c3ccccc3)n2Cc2ccc3c(c2)OCO3)c2ccccc2N1	-24.2
COc1ccc(N2CCN(C(=O)C3(S(=O)(=O)c4ccc(C)cc4)CC3)CC2)cc1	-53.7
CCn1c(C)nc2cc(C(=O)N=Nc3c(O)[nH]c4c(C)cc(C)cc34)ccc21	11.2
CCN(CC)S(=O)(=O)c1ccc(Oc2cccc(C(C)=O)c2)nc1	-65.5
CC(C)(C)OC(=O)N1CCC2(CC1)Oc1ccc(F)cc1C(=O)C21CC(c2cccnc2)=NO1 (centres unmarked)	2.26
CC(C)CC(C(=O)NCC1CCCO1)N(C(=O)Cn1nnc(-c2ccc(F)cc2)n1)c1cccc(C(F)(F)F)c1 (centres unmarked)	-0.701
COc1ccccc1C(=O)NC(=O)CSc1nncn1C	7.11
O=C(CCC1CCCC1)N1CCN(S(=O)(=O)c2ccc(Br)cc2)CC1	0.541
CCCc1nc(SCC(=O)N2CCCC2)c2c(=O)n(C)c(=O)n(C)c2n1	-18.2
CN(Cc1nc(-c2cnccn2)no1)Cc1cccc2ccccc12	-2.31
COc1ccc(-c2[nH]ncc2/C=N/NC(=O)c2ccc(Br)cc2)c(OC)c1	-38.7
CCOC(=O)/C=c1\s/c(=C(\C#N)C(=O)OCC)n(-c2ccccc2)c1=O	9.63
O=C(O)c1ccc(NC(=O)c2cccc(S(=O)(=O)Nc3ccc(C(=O)O)cc3)c2)cc1	13.2
COc1ccc(C(=O)Nc2ccccc2C(=O)N/N=C/c2cccc3ccccc23)cc1	21.4
COc1cc(/C=C/C(=O)O)cc(S(=O)(=O)NCCO)c1OC	9.36
COC(=O)c1ccc(NC(=O)CCNS(=O)(=O)c2cccc3nonc23)cc1	3.47
O=C1CSC(=S)N1N=C1CCCCCC1	6.17
COc1ccc(C2N(C(=O)CN3CCCC3)CCCN2S(=O)(=O)c2ccccc2)cc1 (centres unmarked)	-15.8
